Laboratory results published in the GPR68 mutational scans of Howard et al. (2025).

B1: GPR68, Q15743 (parent)
chain: MGNITADNSSMSCTIDHTIHQTLAPVVYVTVLVVGFPANCLSLYFGYLQIKARNELGVYLCNLTVADLFYICSLPFWLQYVLQHDNWSHGDLSCQVCGILLYENIYISVGFLCCISVDRYLAVAHPFRFHQFRTLKAAVGVSVVIWAKELLTSIYFLMHEEVIEDENQHRVCFEHYPIQAWQRAINYYRFLVGFLFPICLLLASYQGILRAVRRSHGTQKSRKDQIQRLVLSTVVIFLACFLPYHVLLLVRSVWEASCDFAKGVFNAYHFSLLLTSFNCVADPVLYCFVSETTHRDLARLRGACLAFLTCSRTGRAREAYPLGAPEASGKSGAQGEEPELLTKLHPAFQTPNSPGSGGFPTGRLA

Columns and labels:
[1] = variants of: B1; test: cAMP reporter score (Enrich2 score, wild type = 0); higher = more signal; HEK293T, FACS bins
[2] = variants of: B1; test: surface expression score (Enrich2 score, wild type = 0); higher = more signal; HEK293T, FACS bins

Row | Variant | cAMP reporter score ([1]; pH 5.5) | cAMP reporter score ([1]; pH 6) | cAMP reporter score ([1]; pH 6, modulator: ogerin) | cAMP reporter score ([1]; pH 6.5, modulator: ogerin) | surface expression score [2]
1 | MGNITADNSSMSCTIDHTIHQTLAPVVYVTVLVQGFPANCLSLYFGYLQIKARNELGVYLCNLTVADLFYICSLPFWLQYVLQHDNWSHGDLSCQVCGILLYENIYISVGFLCCISVDRYLAVAHPFRFHQFRTLKAAVGVSVVIWAKELLTSIYFLMHEEVIEDENQHRVCFEHYPIQAWQRAINYYRFLVGFLFPICLLLASYQGILRAVRRSHGTQKSRKDQIQRLVLSTVVIFLACFLPYHVLLLVRSVWEASCDFAKGVFNAYHFSLLLTSFNCVADPVLYCFVSETTHRDLARLRGACLAFLTCSRTGRAREAYPLGAPEASGKSGAQGEEPELLTKLHPAFQTPNSPGSGGFPTGRLA [V34Q] | -1.74 | -1.59 | -1.65 | -1.13 | -2.06
2 | MGNITADNSSMSCTIDHTIHQTLAPVVYVTVLVPGFPANCLSLYFGYLQIKARNELGVYLCNLTVADLFYICSLPFWLQYVLQHDNWSHGDLSCQVCGILLYENIYISVGFLCCISVDRYLAVAHPFRFHQFRTLKAAVGVSVVIWAKELLTSIYFLMHEEVIEDENQHRVCFEHYPIQAWQRAINYYRFLVGFLFPICLLLASYQGILRAVRRSHGTQKSRKDQIQRLVLSTVVIFLACFLPYHVLLLVRSVWEASCDFAKGVFNAYHFSLLLTSFNCVADPVLYCFVSETTHRDLARLRGACLAFLTCSRTGRAREAYPLGAPEASGKSGAQGEEPELLTKLHPAFQTPNSPGSGGFPTGRLA [V34P] | -1.46 | -1.02 |  | -1.09 | -1.77
3 | MGNITADNSSMSCTIDHTIHQTLAPVVYVTVLVSGFPANCLSLYFGYLQIKARNELGVYLCNLTVADLFYICSLPFWLQYVLQHDNWSHGDLSCQVCGILLYENIYISVGFLCCISVDRYLAVAHPFRFHQFRTLKAAVGVSVVIWAKELLTSIYFLMHEEVIEDENQHRVCFEHYPIQAWQRAINYYRFLVGFLFPICLLLASYQGILRAVRRSHGTQKSRKDQIQRLVLSTVVIFLACFLPYHVLLLVRSVWEASCDFAKGVFNAYHFSLLLTSFNCVADPVLYCFVSETTHRDLARLRGACLAFLTCSRTGRAREAYPLGAPEASGKSGAQGEEPELLTKLHPAFQTPNSPGSGGFPTGRLA [V34S] | -0.754 | -1.15 | -1.68 | -0.606 | -0.959
4 | MGNITADNSSMSCTIDHTIHQTLAPVVYVTVLVNGFPANCLSLYFGYLQIKARNELGVYLCNLTVADLFYICSLPFWLQYVLQHDNWSHGDLSCQVCGILLYENIYISVGFLCCISVDRYLAVAHPFRFHQFRTLKAAVGVSVVIWAKELLTSIYFLMHEEVIEDENQHRVCFEHYPIQAWQRAINYYRFLVGFLFPICLLLASYQGILRAVRRSHGTQKSRKDQIQRLVLSTVVIFLACFLPYHVLLLVRSVWEASCDFAKGVFNAYHFSLLLTSFNCVADPVLYCFVSETTHRDLARLRGACLAFLTCSRTGRAREAYPLGAPEASGKSGAQGEEPELLTKLHPAFQTPNSPGSGGFPTGRLA [V34N] | -0.96 | -0.203 | -1.77 | -0.65 | -1.88

The least precise scores are not listed. Not listed are two conditions whose scores span a narrow range. Read del as a deletion of the residues named and ins as an insertion between two positions. For some of these results: How much ogerin was present is not stated here.
